Laboratory results reported in the supplement of paper PMC11417369.
The other results are listed elsewhere or left out.

Each sequence was assayed on PfSIP2 AP2 domain 1 (GST-tagged) (assay: gcPBM binding intensity (ln(normalized median fluorescence intensity)); higher = stronger DNA binding).
Outline: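 Binding of GST-tagged P. falciparum DNA-binding domains, expressed in E. coli and used at about 25 μg on average, was carried out for 1 h in 1× PBS containing 1% milk, 0.2 mg/ml BSA, 0.5% salmon testes DNA and 0.03% Triton X-100. The target was an Agilent 4 × 180k array of primer-extended double-stranded 36-bp intergenic genomic probes plus negative controls, read with Alexa488 anti-GST antibody at 488 nm. Binding intensity is the highest Masliner-normalised natural-log median intensity across replicate spots of either probe orientation.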

Sequence | gcPBM binding intensity (ln)
AGAATTAAAATAATACGTACACACATGTATAATACA [XGTACX_site1878] | 7.32
ATTATATCTATAATATGTACATATTATAATATATAT [XGTACX_site3211] | 7.33
AATTGTTAATGGTACGAACACACATATAAAGATGCA [CACACA_site2043] | 7
ATTTTATTTTATTAAGTGCAAAAAAAAAAAAAGAAA | 8.24
ACCTCTCATATGTTATAAACAAAATGAAAATTTCAT [XGTACX_negctrl_site303] | 7.57
TGTACAATATAAGGAGCACACAAAAATGGATAAATA [CACACA_site8216] | 7.14
ATATGGCATAAAACATGTACATGTTCATAAATATAT [XGTACX_site1924] | 7.03
GCTAGTTCATAAAATTGTACAAAAAAAAAAAAAAAA [XGTACX_site2223] | 7.07
TTTTTTATCTAATATTTTATAATTTTCATAAATTTG [GTGCAC_negctrl_site534] | 6.78
AAAAAAAAAAAAAAAAGTACATGCCATATATTTTCA [XGTACX_site4580] | 8.03
AAATAATCTATACACAACGTATAAGAATAATATATG [TGCATGCA_negctrl_site422] | 6.9
AATAGAAACATTTTACATGTATATATAATTTTTTTT [XGTACX_negctrl_site190] | 6.71
TAAATAATGTTAAACACACATACCGATATATAATTA [CACACA_site2711] | 6.82
TATATATAAGAAAAAAGTACAGATATATATATATTC [XGTACX_site4788] | 7.25
TATACAGACAGACACACACACATATATATATATATA [CACACA_site1734] | 9.12
TTTTAAGAAAAAAAATGTACACATGAAAATAGTGAA [XGTACX_site5898] | 7.05
TGTTATATTATAACTACACACGTATTATGTTATATC [CACACA_site839] | 7.08
AAATTTTCACTTCAAAAACACACGTATTTTTTTCCT [CACACA_site3813] | 6.99
TTATATTTATATTTATGTACATATTTTGTGTGAAAA [XGTACX_site2367] | 7.27

Sequence | gcPBM binding intensity (ln)
CCTAAATAATATCTATCACACACGCATATATACATA [CACACA_site8838] | 7.03
TCTATTTATATGTATTGTACAATATAGATGTGTATT [XGTACX_site5646] | 7.22
GTAATACACAGACACACACACATACACATATTTATA [CACACA_site7313] | 7.32
AAATTAAAAATAATTACACACATAGAAAAATTATAT [CACACA_site2275] | 6.99
TTCTATATATAATATTGTACTTAATTATTTTATTTT [XGTACX_site2701] | 6.91
AGTGTATATAGAAACATACACACATATTAATTTTAC [CACACA_site3127] | 6.84
TAGCTGTTCAAAAAATGTACATATATAATATATATA [XGTACX_site5842] | 7.49
ATATATATGCATTCAAGTACAAAAATATATGTTAAA [XGTACX_site910] | 7.11
ATATAATAACATAACACACACATGTATTTATAGGTG [CACACA_site359] | 6.97
ACATTATAATATTATTGTACTATATATATAATATAT [XGTACX_site2291] | 7.28
AAAAAAAAAAAAAAAACACACATATATATATAATAT [CACACA_site1159] | 7.42
GATAATCAGAATGGGGTGCAAAGAAAAAAAAAAAAA | 11.3
ATAATAAGAAAAAAAAAAAAAAAAAAAAAAAAAAAA [TGCATGCA_negctrl_site377] | 6.9
ATATTGAAATGTTAATAGAAATATATGGTTAAATTG [XGTACX_negctrl_site212] | 6.87
ATGTATATAAATAGGTGTACATATAAGGTGTTAAGC [XGTACX_site5465] | 7.75
TACACAAACGTTATACGTACACAGGTTTTTCTTTTA [XGTACX_site5427] | 6.82
ACATAAGAATTTTTATGTACTCATAATATTTTATAT [XGTACX_site2398] | 7.17
GAAATATTTGTAAAAACATGCATGGTACTTTTAAAA [TGCATGCA_site6] | 6.96
TACATACTAAAAAAATGTACTTGTATTGTTTTTTTA [XGTACX_site8357] | 6.84

Sequence | gcPBM binding intensity (ln)
TATATATATATATACACATGCAAAAATTTTTAATTT [TGCATGCA_site82] | 9.62
TTTCTATATGGATTTGCACACATAAAAATGCTTATA [CACACA_site8751] | 7.2
TTATTTAACGTATTCTCACACATATATATATATAAT [CACACA_site5226] | 7.22
TCTTTAATGATGTGTACACAAGAAAACATTGTTAAG [CACACA_site5299] | 7.13
TAGAAGCATCATTTTACACACATGCAAATGTAAAAT [CACACA_site1893] | 6.77
AAAAATAAGAGCGTAGCACACACGCATTTTATAAAT [CACACA_site8147] | 6.67
TTATTGAACTTTTATAAAACCTGTATTATTATCTCT [CACACA_negctrl_site767] | 6.9
TTATATTAATAATAAAGTACAAAAAATCATATATAA [XGTACX_site799] | 7.07
TATTTCTTATTACATACACACATATACATATATGAC [CACACA_site3201] | 7.17
TCCAGGCTACACTCTAGTACTCGTAGGGTTATGAGA [XGTACX_site4945] | 6.7
ATATATATATATATATGTACATATGTTAGGATCAAA [XGTACX_site8626] | 9.42
ATGACATATAAATATACACACATACGTAAGTATATT [CACACA_site5058] | 6.93
GTGGAATAATATATATGTACATATTTAAAATATTTA [XGTACX_site3499] | 7.05
AATGGTCTTTTCAACACACGTACATAAAAATATTAT [CACACA_site2571] | 7.52
TAAAAGTATATATATACACACATAAATATATCTGTA [CACACA_site4537] | 7
TGACAACATAGAGGGGCACACACATATATACATAAA [CACACA_site8550] | 7.54
ATTTTTTTACAAAAATGTACACATGAAATATGTAAT [XGTACX_site1372] | 7.28
TATTATTTTAGAATGCGTACTTATAAAATATTTTAT [XGTACX_site867] | 6.97
TTAAATTATTAGAGAGTGCATTATATATATTATACA [GTGCAC_site9711] | 8.84
